# Test results taken from publication PMC12820563.
# This is one part of the list. The list includes weakly bound sequences.
# Molecular target: T1, MBP-FoxP3dN (UniProt Q99JB6)
# T1 sequence: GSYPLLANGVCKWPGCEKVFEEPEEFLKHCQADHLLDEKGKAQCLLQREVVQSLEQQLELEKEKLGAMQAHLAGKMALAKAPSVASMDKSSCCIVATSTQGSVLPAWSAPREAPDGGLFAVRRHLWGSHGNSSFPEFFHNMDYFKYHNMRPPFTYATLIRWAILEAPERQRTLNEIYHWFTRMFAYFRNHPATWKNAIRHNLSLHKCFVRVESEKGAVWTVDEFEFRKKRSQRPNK
# Assay: PD-seq (MBP pull-down with sequencing)
# Conditions: 20 mM Tris-HCl pH 7.5, 100 mM NaCl, 1.5 mM MgCl2, 0.4 uM protein, 0.1 uM dsDNA library, 30 min, room temperature, amylose pull-down; high values mean tight binding; double strand, one strand shown
row,Sequence,binding signal (RPM ratio (pull-down/input))
1,GATGATTGTTCTCCCAGCTGATGAATTAATGGAATCGAGTAAACAAATTTTCCTAATCTTTCTGTTCAAGCGCCATCTAC,0.247
2,GATGATTGTTCTCCCAGCTGATGAATTCCTGCTATCGAGTAAACAAATTTTCCTAATCTTTCTGTTCAAGCGCCATCTAC,0.518
3,GATGATTGTTCTCCCAGCTGATGAATTAATATTGTCGAGTAAACAAATTTTCCTAATCTTTCTGTTCAAGCGCCATCTAC,1.18
4,GATGATTGTTCTCCCAGCTGATGAATTAGACCCATCGAGTAAACAAATTTTCCTAATCTTTCTGTTCAAGCGCCATCTAC,0.381
5,GATGATTGTTCTCCCAGCTGATGAATTCTGCAGGTCGAGTAAACAAATTTTCCTAATCTTTCTGTTCAAGCGCCATCTAC,1.07
6,GATGATTGTTCTCCCAGCTGATGAATTTGTCGGTTCGAGTAAACAAATTTTCCTAATCTTTCTGTTCAAGCGCCATCTAC,3.1
7,GATGATTGTTCTCCCAGCTGATGAATTACCCCCGTCGAGTAAACAAATTTTCCTAATCTTTCTGTTCAAGCGCCATCTAC,0.246
8,GATGATTGTTCTCCCAGCTGATGAATTCCCGCGTTCGAGTAAACAAATTTTCCTAATCTTTCTGTTCAAGCGCCATCTAC,1.33
9,GATGATTGTTCTCCCAGCTGATGAATTCGCACCGTCGAGTAAACAAATTTTCCTAATCTTTCTGTTCAAGCGCCATCTAC,0.391
10,GATGATTGTTCTCCCAGCTGATGAATTCTGTGTCTCGAGTAAACAAATTTTCCTAATCTTTCTGTTCAAGCGCCATCTAC,2.76
11,GATGATTGTTCTCCCAGCTGATGAATTACCTAGTTCGAGTAAACAAATTTTCCTAATCTTTCTGTTCAAGCGCCATCTAC,0.315
12,GATGATTGTTCTCCCAGCTGATGAATTCAGATAATCGAGTAAACAAATTTTCCTAATCTTTCTGTTCAAGCGCCATCTAC,0.3
13,GATGATTGTTCTCCCAGCTGATGAATTAGATTAATCGAGTAAACAAATTTTCCTAATCTTTCTGTTCAAGCGCCATCTAC,0.347
14,GATGATTGTTCTCCCAGCTGATGAATTATGTGTCTCGAGTAAACAAATTTTCCTAATCTTTCTGTTCAAGCGCCATCTAC,3.3
15,GATGATTGTTCTCCCAGCTGATGAATTGCTCAATTCGAGTAAACAAATTTTCCTAATCTTTCTGTTCAAGCGCCATCTAC,0.549
16,GATGATTGTTCTCCCAGCTGATGAATTTAGCGCTTCGAGTAAACAAATTTTCCTAATCTTTCTGTTCAAGCGCCATCTAC,0.95
17,GATGATTGTTCTCCCAGCTGATGAATTAGAGTTGTCGAGTAAACAAATTTTCCTAATCTTTCTGTTCAAGCGCCATCTAC,0.891
18,GATGATTGTTCTCCCAGCTGATGAATTTACCTACTCGAGTAAACAAATTTTCCTAATCTTTCTGTTCAAGCGCCATCTAC,0.557
19,GATGATTGTTCTCCCAGCTGATGAATTCAACAGTTCGAGTAAACAAATTTTCCTAATCTTTCTGTTCAAGCGCCATCTAC,0.431
20,GATGATTGTTCTCCCAGCTGATGAATTTTTTACTTCGAGTAAACAAATTTTCCTAATCTTTCTGTTCAAGCGCCATCTAC,0.261
21,GATGATTGTTCTCCCAGCTGATGAATTAGGCGGCTCGAGTAAACAAATTTTCCTAATCTTTCTGTTCAAGCGCCATCTAC,0.691

row,Sequence,binding signal (RPM ratio (pull-down/input))
1,GATGATTGTTCTCCCAGCTGATGAATTCTGGGATTCGAGTAAACAAATTTTCCTAATCTTTCTGTTCAAGCGCCATCTAC,0.376
2,GATGATTGTTCTCCCAGCTGATGAATTCCGTCGGTCGAGTAAACAAATTTTCCTAATCTTTCTGTTCAAGCGCCATCTAC,0.291
3,GATGATTGTTCTCCCAGCTGATGAATTATCGGAGTCGAGTAAACAAATTTTCCTAATCTTTCTGTTCAAGCGCCATCTAC,0.245
4,GATGATTGTTCTCCCAGCTGATGAATTATTAGGGTCGAGTAAACAAATTTTCCTAATCTTTCTGTTCAAGCGCCATCTAC,0.308
5,GATGATTGTTCTCCCAGCTGATGAATTCGGAAGTTCGAGTAAACAAATTTTCCTAATCTTTCTGTTCAAGCGCCATCTAC,0.245
6,GATGATTGTTCTCCCAGCTGATGAATTATATGAGTCGAGTAAACAAATTTTCCTAATCTTTCTGTTCAAGCGCCATCTAC,1.11
7,GATGATTGTTCTCCCAGCTGATGAATTGAACAATTCGAGTAAACAAATTTTCCTAATCTTTCTGTTCAAGCGCCATCTAC,0.41
8,GATGATTGTTCTCCCAGCTGATGAATTGCCAATATCGAGTAAACAAATTTTCCTAATCTTTCTGTTCAAGCGCCATCTAC,0.746
9,GATGATTGTTCTCCCAGCTGATGAATTGGTGTGGTCGAGTAAACAAATTTTCCTAATCTTTCTGTTCAAGCGCCATCTAC,1.32
10,GATGATTGTTCTCCCAGCTGATGAATTTTAAAGCTCGAGTAAACAAATTTTCCTAATCTTTCTGTTCAAGCGCCATCTAC,0.245
11,GATGATTGTTCTCCCAGCTGATGAATTACATGTTTCGAGTAAACAAATTTTCCTAATCTTTCTGTTCAAGCGCCATCTAC,0.983
12,GATGATTGTTCTCCCAGCTGATGAATTAAGTGTCTCGAGTAAACAAATTTTCCTAATCTTTCTGTTCAAGCGCCATCTAC,1.55
13,GATGATTGTTCTCCCAGCTGATGAATTGATGAGATCGAGTAAACAAATTTTCCTAATCTTTCTGTTCAAGCGCCATCTAC,0.309
14,GATGATTGTTCTCCCAGCTGATGAATTGCGAGCGTCGAGTAAACAAATTTTCCTAATCTTTCTGTTCAAGCGCCATCTAC,0.763
15,GATGATTGTTCTCCCAGCTGATGAATTCGGGGTGTCGAGTAAACAAATTTTCCTAATCTTTCTGTTCAAGCGCCATCTAC,0.934
16,GATGATTGTTCTCCCAGCTGATGAATTCTTTTAATCGAGTAAACAAATTTTCCTAATCTTTCTGTTCAAGCGCCATCTAC,0.213
17,GATGATTGTTCTCCCAGCTGATGAATTACATTCGTCGAGTAAACAAATTTTCCTAATCTTTCTGTTCAAGCGCCATCTAC,0.566
18,GATGATTGTTCTCCCAGCTGATGAATTTAATGGGTCGAGTAAACAAATTTTCCTAATCTTTCTGTTCAAGCGCCATCTAC,1.3
19,GATGATTGTTCTCCCAGCTGATGAATTCGCTACCTCGAGTAAACAAATTTTCCTAATCTTTCTGTTCAAGCGCCATCTAC,0.472
20,GATGATTGTTCTCCCAGCTGATGAATTCTACAATTCGAGTAAACAAATTTTCCTAATCTTTCTGTTCAAGCGCCATCTAC,0.354
21,GATGATTGTTCTCCCAGCTGATGAATTAGATGGCTCGAGTAAACAAATTTTCCTAATCTTTCTGTTCAAGCGCCATCTAC,0.686

row,Sequence,binding signal (RPM ratio (pull-down/input))
1,GATGATTGTTCTCCCAGCTGATGAATTATGGAGCTCGAGTAAACAAATTTTCCTAATCTTTCTGTTCAAGCGCCATCTAC,0.305
2,GATGATTGTTCTCCCAGCTGATGAATTTATCCCATCGAGTAAACAAATTTTCCTAATCTTTCTGTTCAAGCGCCATCTAC,0.695
3,GATGATTGTTCTCCCAGCTGATGAATTTACTCACTCGAGTAAACAAATTTTCCTAATCTTTCTGTTCAAGCGCCATCTAC,0.62
4,GATGATTGTTCTCCCAGCTGATGAATTAACTCCGTCGAGTAAACAAATTTTCCTAATCTTTCTGTTCAAGCGCCATCTAC,0.236
5,GATGATTGTTCTCCCAGCTGATGAATTTTTGCCGTCGAGTAAACAAATTTTCCTAATCTTTCTGTTCAAGCGCCATCTAC,0.751
6,GATGATTGTTCTCCCAGCTGATGAATTAAAAGAATCGAGTAAACAAATTTTCCTAATCTTTCTGTTCAAGCGCCATCTAC,0.196
7,GATGATTGTTCTCCCAGCTGATGAATTTGGGGAATCGAGTAAACAAATTTTCCTAATCTTTCTGTTCAAGCGCCATCTAC,0.32
8,GATGATTGTTCTCCCAGCTGATGAATTCAATGTATCGAGTAAACAAATTTTCCTAATCTTTCTGTTCAAGCGCCATCTAC,1.5
9,GATGATTGTTCTCCCAGCTGATGAATTGGCGCTGTCGAGTAAACAAATTTTCCTAATCTTTCTGTTCAAGCGCCATCTAC,0.476
10,GATGATTGTTCTCCCAGCTGATGAATTCTCTGACTCGAGTAAACAAATTTTCCTAATCTTTCTGTTCAAGCGCCATCTAC,0.188
11,GATGATTGTTCTCCCAGCTGATGAATTGCGGGCTTCGAGTAAACAAATTTTCCTAATCTTTCTGTTCAAGCGCCATCTAC,0.686
12,GATGATTGTTCTCCCAGCTGATGAATTTTAGCACTCGAGTAAACAAATTTTCCTAATCTTTCTGTTCAAGCGCCATCTAC,0.537
13,GATGATTGTTCTCCCAGCTGATGAATTATTTCGATCGAGTAAACAAATTTTCCTAATCTTTCTGTTCAAGCGCCATCTAC,0.363
14,GATGATTGTTCTCCCAGCTGATGAATTCCATTGCTCGAGTAAACAAATTTTCCTAATCTTTCTGTTCAAGCGCCATCTAC,0.618
15,GATGATTGTTCTCCCAGCTGATGAATTCAATTGATCGAGTAAACAAATTTTCCTAATCTTTCTGTTCAAGCGCCATCTAC,1.07
16,GATGATTGTTCTCCCAGCTGATGAATTGTTTCCCTCGAGTAAACAAATTTTCCTAATCTTTCTGTTCAAGCGCCATCTAC,1.51
17,GATGATTGTTCTCCCAGCTGATGAATTGGTACATTCGAGTAAACAAATTTTCCTAATCTTTCTGTTCAAGCGCCATCTAC,0.679
18,GATGATTGTTCTCCCAGCTGATGAATTAAATCGTTCGAGTAAACAAATTTTCCTAATCTTTCTGTTCAAGCGCCATCTAC,0.372
19,GATGATTGTTCTCCCAGCTGATGAATTCCATGGTTCGAGTAAACAAATTTTCCTAATCTTTCTGTTCAAGCGCCATCTAC,0.513
20,GATGATTGTTCTCCCAGCTGATGAATTTACTGCATCGAGTAAACAAATTTTCCTAATCTTTCTGTTCAAGCGCCATCTAC,1.26
21,GATGATTGTTCTCCCAGCTGATGAATTCTACTGGTCGAGTAAACAAATTTTCCTAATCTTTCTGTTCAAGCGCCATCTAC,0.328
